{
  "source": "PubChem BioAssay AID686979",
  "about": "(National Center for Advancing Translational Sciences (NCATS), 2013)",
  "note": "The whole screen tested about 420,000 compounds, of which about 50,000 (12%) were called active. Inconclusive means that the source gave no clear call. Such entries were picked first, then a sample of the others. Calls follow the shape of the dose curve; as a rule, active = well fitted inhibition curve with a large enough effect; inconclusive = small, poorly fitted or top-dose-only effect; inactive = flat fitted curve, though single readings scatter. Potencies of inconclusive entries are left out as doubtful fits. Some structures have more than one record in an assay (separate samples or runs), and their calls can disagree. % is scaled to controls: 0 for no effect and ±100 for the full control effect; potency is read from the fitted curve at half-maximal effect; tags tell the direction and shape of the fitted curve.",
  "data": [
    {"test": "qHTS for Inhibitors of human tyrosyl-DNA phosphodiesterase 1 (TDP1): qHTS in cells in presence of CPT; also: nearly all actives have a fitted effect of over 55% in size", "conditions": "chicken DT40 Tdp1-/-;hTDP1 cells + 20 nM CPT, ATP luminescence, 48 h; activity change, negative = growth inhibition: at 46.2 µM (top of the series)", "summary_of_the_method": "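Cell growth measured by CellTiter-Glo luminescence after a minimum 48 h, 37 C compound exposure with 20 nM CPT in Tdp1-knockout DT40 cells stably expressing hTDP1, seeded 400/well; qHTS titration format.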", "values": [
      {"smiles": "COC(=O)[C@@]1(Cc2ccc(F)cc2)[C@H]2c3cc(C(=O)N4CCCC4)n(Cc4ccc(OC(F)(F)F)cc4)c3C[C@H]2CN1C(=O)c1ccccc1", "Potency": "inconclusive [inhibitor, single point]"},
      {"smiles": "CCCCN1C(=O)C(CC(=O)NCC2CCCCC2)CC(C(=O)N2CCCCCC2)=C1C", "note": "(configuration not stated)", "Potency": "inconclusive [inhibitor, single point]"},
      {"smiles": "Cc1ccn(-c2ccc(NC(=O)c3cccs3)cc2)n1", "Potency": "inconclusive [inhibitor, single point]"},
      {"smiles": "CCN(CC)S(=O)(=O)c1ccc(C(=O)NCC(c2ccc(OC)cc2)N2CCOCC2)cc1", "note": "(configuration not stated)", "activity change, negative = growth inhibition": "inactive: -15.8%"},
      {"smiles": "O=C1CCC(=O)N1CNc1cccnc1", "Potency": "inconclusive [inhibitor, full curve, poor fit]"},
      {"smiles": "N=c1cc(C2(O)CCCCC2)n2c(nc3ccccc32)s1", "Potency": "inconclusive [inhibitor, single point]"},
      {"smiles": "Cc1cc2oc(=O)cc(-c3ccccc3)c2c(C)c1-c1ccc(C(F)(F)F)cc1", "Potency": "inconclusive [inhibitor, single point]"},
      {"smiles": "CCOC(=O)C1=CN(CC)S(=O)(=O)NC1c1ccc(C(F)(F)F)cc1", "note": "(configuration not stated)", "activity change, negative = growth inhibition": "inactive: -18.7%"},
      {"smiles": "Nc1nnnn1/N=C/c1cc(Cl)cc(Cl)c1OCc1ccc(Cl)cc1Cl", "Potency": "inconclusive [inhibitor, full curve]"},
      {"smiles": "COc1ccccc1N1C(=NC(=O)CCc2ccccc2)SC2CS(=O)(=O)CC21", "note": "(configuration not stated)", "activity change, negative = growth inhibition": "inactive: -0.0797%"},
      {"smiles": "Cc1cc(C)nc(N/N=C/C=C/c2ccccc2)n1", "Potency": "inconclusive [inhibitor, single point]"},
      {"smiles": "COC(=O)Nc1cc(C(=O)c2ccc(Cl)cc2Cl)c[nH]1", "activity change, negative = growth inhibition": "inactive: -2.29%"},
      {"smiles": "O=C(c1ccc2c(c1)CCN2S(=O)(=O)c1ccc(Cl)cc1)N1CCN(c2ccccc2)CC1", "Potency": "active: 11.6 µM"},
      {"smiles": "COc1ccc(C(=O)NNC(=O)c2cc3cc([N+](=O)[O-])ccc3oc2=O)cc1OC", "activity change, negative = growth inhibition": "inactive: -5.71%"},
      {"smiles": "COc1ccc(/C=C/C(=O)C2CC2)cc1COc1cccc(C)c1C", "Potency": "inconclusive [inhibitor, single point]"},
      {"smiles": "O=C(O)CNc1ccc(S(=O)(=O)C(F)(F)F)cc1[N+](=O)[O-]", "activity change, negative = growth inhibition": "inactive: -3.29%"},
      {"smiles": "C/C(NCc1ccccc1)=C(\\C#N)C(=O)NCc1ccccc1", "Potency": "inconclusive [inhibitor, partial curve, poor fit]"},
      {"smiles": "COc1ccc(CNC(=O)Nc2ccc3c(c2)c(=O)n(C)n3Cc2cc(C)cc(C)c2)cc1", "Potency": "active: 20.6 µM"},
      {"smiles": "COC(OC)c1ccnc(SCc2ccccc2Cl)n1", "activity change, negative = growth inhibition": "inactive: 13.7%"},
      {"smiles": "Cc1ccnc(NC(=O)c2cccc(NC(=O)c3ccc(Cl)cc3)c2)c1", "Potency": "inconclusive [inhibitor, single point]"},
      {"smiles": "Cc1ccc(C(=O)NCCNC(=O)COc2ccc(Cl)cc2)cn1", "activity change, negative = growth inhibition": "inactive: 9.16%"},
      {"smiles": "O=S(=O)(Nn1cnnc1)c1ccccc1Cl", "activity change, negative = growth inhibition": "inactive: 4.62%"},
      {"smiles": "O=C(N/C=N/OCc1cccc(C(F)(F)F)c1)N1OC[C@@H]2COc3ccc4ccccc4c3[C@@H]21", "Potency": "inconclusive [inhibitor, single point]"},
      {"smiles": "O=C(COC(=O)C1(c2ccccc2F)CCCC1)NC1CCS(=O)(=O)C1", "note": "(configuration not stated)", "activity change, negative = growth inhibition": "inactive: 4.49%"},
      {"smiles": "COc1cccc(CNC(=O)[C@@H]2CCCN2)c1", "activity change, negative = growth inhibition": "inactive: 3.68%"},
      {"smiles": "CCS(=O)(=O)c1ccc(OC)c(N=Nc2ccc(O)c3ncccc23)c1", "Potency": "inconclusive [inhibitor, single point]"},
      {"smiles": "O=S1(=O)c2ccccc2OC(COCc2ccccc2)CN1Cc1ccccc1", "note": "(configuration not stated)", "Potency": "inconclusive [inhibitor, single point]"},
      {"smiles": "Cc1c(C(=O)Nc2ccc(Cl)cc2)c2ccccn2c1CCc1ccncc1", "Potency": "inconclusive [inhibitor, single point]"},
      {"smiles": "CCCCNC(=O)CSc1nc2cc3c(cc2c(=O)n1Cc1ccco1)OCO3", "Potency": "active: 18.4 µM"},
      {"smiles": "O=C(NCc1ccc(F)cc1)C1CCN(c2ncnc3c2nc2n3CCCCC2)CC1", "activity change, negative = growth inhibition": "inactive: -6.51%"},
      {"smiles": "c1cc(-c2cc3nc(NC4CCCCC4)ccn3n2)ccc1OCCN1CCOCC1", "Potency": "active: 3.26 µM"},
      {"smiles": "COC(=O)c1ccc(C)c(NC(=O)CCCN2C(=O)NC(C)(C)C2=O)c1", "activity change, negative = growth inhibition": "inactive: 0.34%"},
      {"smiles": "O=C(CNc1cccc2ccccc12)c1ccc([N+](=O)[O-])cc1", "Potency": "active: 14.6 µM"},
      {"smiles": "CCCCCn1c(=N)c(S(=O)(=O)c2ccc(Br)cc2)cc2c(=O)n3cccc(C)c3nc21", "Potency": "inconclusive [inhibitor, single point]"},
      {"smiles": "COc1ccccc1-c1nc2cc3ccccc3cc2nc1-c1ccccc1OC", "Potency": "inconclusive [inhibitor, single point]"},
      {"smiles": "C=CCOc1ccccc1CNc1ccc2[nH]c(=O)[nH]c2c1", "Potency": "inconclusive [inhibitor, single point]"},
      {"smiles": "Cc1c(NC(=O)Cn2[nH]c(=O)c3ccccc3c2=O)c(=O)n(-c2ccccc2)n1C", "Potency": "inconclusive [inhibitor, single point]"},
      {"smiles": "Cc1ccc2c(c1)C(c1ccc(N3CCOCC3)cc1)=NNC(c1cccs1)=N2", "Potency": "inconclusive [inhibitor, single point]"},
      {"smiles": "COc1ccccc1/C=C/C(=O)OCCN1CCOCC1", "activity change, negative = growth inhibition": "inactive: -0.144%"},
      {"smiles": "CCN1C(=O)C(CC(=O)Nc2ccc(OC)cc2)N(CCCN2CCN(c3ccc(F)cc3)CC2)C1=S", "note": "(configuration not stated)", "Potency": "active: 23.1 µM"},
      {"smiles": "CCC(=O)N1CCN(c2ccccc2NC(=O)c2ccc([N+](=O)[O-])o2)CC1", "Potency": "active: 18.4 µM"},
      {"smiles": "Cc1cc(C(=O)N2CCCC(CO)(Cc3ccc(F)cc3F)C2)nn1C", "note": "(configuration not stated)", "Potency": "inconclusive [inhibitor, single point]"},
      {"smiles": "CCn1nc(C(=O)NCC2COc3ccccc3O2)c2ccccc2c1=O", "note": "(configuration not stated)", "Potency": "inconclusive [inhibitor, single point]"},
      {"smiles": "CC(=O)c1ccc(-c2ccc(C(=O)N3CCCc4ccccc43)o2)cc1", "Potency": "inconclusive [inhibitor, single point]"},
      {"smiles": "Nc1ccccc1N", "Potency": "active: 4.86 µM"},
      {"smiles": "COC(=O)c1c(-c2ccc(OC)c(OC)c2)csc1N", "activity change, negative = growth inhibition": "inactive: -19.6%"},
      {"smiles": "CC(C)CCCCCCCCCCCCC(=O)NCC(=O)NC1C(C)OC(Nc2ncnc3nc[nH]c23)C(O)C1O", "note": "(configuration not stated)", "Potency": "active: 0.0206 µM"}
    ]}
  ]
}
